Over roughly 81,000 sequences, “one-hybrid fitness for binding parS DNA” has its median near -0.17; the highest 2% begin near 0.51. The list shows a part of the results.
B1: Caulobacter ParB omega fusion; a variant is named by its letters at X, in order, B8GW30 (parent)
chain: MESVVVGEPGMSEGRRGLGRGLSALLGEVDAAPAQAPGEQLGGSREAPIEILQRNPDQPRRTFREEDLEDLSNSIREKGVLQPILVRPSPDTAGEYQIVAGERAWRAAQRAGLKTVPIMVRELDDLAVLEIGIIENVQRADLNVLEEALSYKVLMEKFERTQENIAQTIGKSXSHVANXMRLLXLPDEVQSYLVSGELTAXHARAIAAAADPVALAKQIIEGGLSVRETEALARKAPNLSAGKSKGGRPPRVKDTDTQALESDLSSVLGLDVSIDHRGSTGTLTITYATLEQLDDLCNRLTRGI

Variants of: B1
Experiment: one-hybrid fitness for binding parS DNA (scaled: cognate 1, non-cognate 0); higher = stronger binding
Conditions: with parS DNA site
How it was run: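 Values were rescaled so that cognate is 1 and non-cognate is 0. Each is a fitness, the log change in a variant's read ratio to wild type from Illumina reads of plasmids before and after selection, with three replicate libraries pooled and variants under 10 reads dropped. Selection of the Caulobacter ParB libraries, four specificity codons randomised, used E. coli USO with a HIS3 reporter, site 19 bp from the promoter, on M9-minus-histidine with 0.1 mM IPTG and 5 mM 3-AT for 48 hours at 37°C.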

one-hybrid fitness for binding parS DNA, 0.378:
RSKM

one-hybrid fitness for binding parS DNA, 0.353:
RQEY

one-hybrid fitness for binding parS DNA, 0.383:
RFYY

one-hybrid fitness for binding parS DNA, 0.833:
RKGS

one-hybrid fitness for binding parS DNA, 1.03:
RLYG

one-hybrid fitness for binding parS DNA, 0.78:
RGTG

one-hybrid fitness for binding parS DNA, 0.439:
RMKF

one-hybrid fitness for binding parS DNA, 1.01:
RVAS

one-hybrid fitness for binding parS DNA, ≤ 0.2:
GEAC
RNED
VNAG
VTTQ
GCIL
STIW
SCYV
TTAP
RVDL
PVTN
QQMM
AQNN
TLRD
HICT
WHHS
QQIS
ECRV
NPLS
HCKN
NGRR
WQKF
SHIL
SNHG
GPQT
GFTL
TIYN
SCYY
KLYG
YNKE
HPPR
EFDS
AAQR
RKWH
CQAG
KQRF
KKMG
KNVS
LKVN
WKRR
APKN
RGNH
FMYT
TMYT
EFEK
NKAG
ADFS
TIGS
QMCS
NAQP
TGDE
QWWR
LRAN
TPVN
AFPW
QRWY
LVHL
YIHG
WPSC
RRTF
ADCY
RGNL
KTAI
MNPR
NRSW
SWSF
ERDS
SSMC
PKAS
QITT
NGHS
RNGM
VVRL
KDHP
MTCR
AHGW
LSYN
HGHI
ACLL
LAIH
PQAN
INSI
RLHV
QFMT
TNCR
PHYC
MGDY
YLRC
MAWF
MRQE
YEEG
VEKC
VPNY
KAKD
LNWR
HTQS
YVFG
GHVG
HYCF
EGHE
CREK
EAIW
PKLV
SRHM
CTKG
CSKM
TDRN
TSKK
CLGR
QFSI
PITE
WQAT
AKKG
TVHN
SSYV
DQRA
SSMG
IMMR
IPMS
HIRQ
QYRK
SVQI
RKVL
WWPS
GHMR
DCWG
LNHM
YTAH
EEAT
MARH
TTYR
WDNV
STTM
ERSE
RGDF
EKHR
RKHL
NDSY
DNGR
DDYC
TDIR
TSDW
HCKR
HSLG
QTTA

one-hybrid fitness for binding parS DNA, 0.562:
RYQA
